In publication PMC4052767 (Genes & Development, 2014):
Each block holds one binder with its values, some of them ahead of it.

Columns and labels:
Hat1p/Hat2p complex [1] = target: T1, Hat1p/Hat2p complex (yeast (Saccharomyces cerevisiae), UniProt Q12341;P39984); assay: crystal structure
Yeast Hat1p (1-320) = Yeast Hat1p (1-320) (yeast (Saccharomyces cerevisiae), UniProt Q12341 1-320); assay: crystal structure
[2] = target: T2, Yeast Hat2p (full length) with N-terminal 6xHis tag (yeast (Saccharomyces cerevisiae), UniProt P39984 1-401); assay: crystal structure
T2 sequence: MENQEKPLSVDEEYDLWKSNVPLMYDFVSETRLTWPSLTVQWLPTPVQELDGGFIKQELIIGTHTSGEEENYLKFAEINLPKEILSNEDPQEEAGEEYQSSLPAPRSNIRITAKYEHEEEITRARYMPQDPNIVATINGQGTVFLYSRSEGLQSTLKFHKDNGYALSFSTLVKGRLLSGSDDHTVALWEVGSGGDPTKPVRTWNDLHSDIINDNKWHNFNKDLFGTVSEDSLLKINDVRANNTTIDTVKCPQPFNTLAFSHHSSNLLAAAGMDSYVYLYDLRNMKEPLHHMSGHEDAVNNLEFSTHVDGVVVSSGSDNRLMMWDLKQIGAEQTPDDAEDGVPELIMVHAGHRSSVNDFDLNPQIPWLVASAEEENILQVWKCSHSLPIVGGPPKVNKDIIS

Hat1p/Hat2p complex [3] = target: T1, Hat1p/Hat2p complex; assay: pull-down

binding result (Hat1p/Hat2p complex [1]): binds | binding result (Yeast Hat1p (1-320)): binds | binding result [2]: binds
B1: Yeast histone H4 ([…]) peptide (domain or fragment)
chain: not shown

binding result (Hat1p/Hat2p complex [3]): binds
B2: GST-H4_([…]) (domain or fragment)
chain: not shown
